This is one part of the list. The list includes weakly bound sequences.

This experiment concerns the target MaxL homodimer (UniProt P61244). Nature of the experiment: universal protein-binding microarray (PBM). The settings on record: PBS-based mixture, 10 nM His-tagged protein dimer, 2% milk, 200 ng/uL BSA, 50 ng/uL salmon testes DNA, 0.02% TX-100; detection with Alexa 488 anti-His …; high values mean tight binding; most listed sequences are background and not binding sites; double strand, one strand shown.
UniProt P61244, sequence (P61244 whole entry): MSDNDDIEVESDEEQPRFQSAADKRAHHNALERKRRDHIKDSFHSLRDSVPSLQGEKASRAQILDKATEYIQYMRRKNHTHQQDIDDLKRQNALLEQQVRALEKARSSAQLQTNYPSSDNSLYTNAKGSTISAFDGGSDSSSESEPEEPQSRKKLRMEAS
For AGGACATC, the binding signal (normalized occupancy) came to 0.0719.
Consider AGAGCTAA, for which the binding signal (normalized occupancy) came to 0.0683.
Turning to TGGCGTAA, the binding signal (normalized occupancy) was 0.0728.
For ATGGCTCA the value was 0.0798.
For TCGGAAGA the value was 0.0706.
On to TCAAAAGA, for which the binding signal (normalized occupancy) came to 0.0734.
Consider GTATATAC, for which the binding signal (normalized occupancy) turned out to be 0.0866.
On to CTTGCGAC, for which the binding signal (normalized occupancy) is 0.0725.
For GCGTCAGC the value was 0.0714.
For CTGAACAG the value was 0.0682; for AATACAGC, 0.0751; for CGAGGTAG, 0.0739.
For CAGGACTG the value was 0.0714; for CATTGCTA, 0.0798.
With AAACTTGG, the binding signal (normalized occupancy) is 0.0681.
For AGAGACGA the value was 0.0734; for TTGCAAAA, 0.0751.
On to AGAACGGA, for which the binding signal (normalized occupancy) was found to be 0.0699.
For GTGGTCAA the value was 0.0837; for AGTCTAGG, 0.0681; for GATAGGTA, 0.0782.
As for CCTATGTC, the binding signal (normalized occupancy) came to 0.0759.
For AGACGACC the value was 0.0696.
For ATGAGATA the value was 0.0762; for GAATGATA, 0.0847; for ACAGCTAG, 0.0715.
In the case of ATCACGCG, the binding signal (normalized occupancy) is 0.132.
For AAACGGTG the value was 0.0723; for AACGCTTC, 0.0768; for GACGTCGA, 0.0676.
For CTATTCTA the value was 0.0771; for ACCGCGCC, 0.0729; for GGAACAAC, 0.0718.
For ACTCAAAT, the binding signal (normalized occupancy) was 0.0797.
For CGTATAAC the value was 0.0804; for CGGGAGAG, 0.0681; for ATGGAGGA, 0.0837.
For CCTAACAC the value was 0.0797.
Consider AGATCCCT, for which the binding signal (normalized occupancy) was found to be 0.0755.
Take CGCGGTAG: the binding signal (normalized occupancy) was 0.0751.
Take AATTACGG: the binding signal (normalized occupancy) was 0.0744.
As for AGTGTGTA, the binding signal (normalized occupancy) worked out at 0.0806.
Take CGGTATGC: the binding signal (normalized occupancy) turned out to be 0.0782.
For GGATATAC the value was 0.0812; for ACAGCTGC, 0.0723.
AACAGTAT: the binding signal (normalized occupancy) worked out at 0.0793.
Consider GATACCAA, for which the binding signal (normalized occupancy) was found to be 0.078.
For GTATCAGA the value was 0.0735.
For ACCACTAT the value was 0.0819; for ATTGGAAG, 0.076; for AATCGATC, 0.0741.
Take GCACTGGC: the binding signal (normalized occupancy) turned out to be 0.071.
For AAAGCAAT the value was 0.0711; for ATGAGACC, 0.0803.
For GGCACTCA the value was 0.0801; for AAGGGAGT, 0.0731.
For CTTATGTC the value was 0.0754.
As to GCCGCGCC, the binding signal (normalized occupancy) was 0.0686.
For ACCATTAA the value was 0.0795; for CCGTAAAA, 0.0707; for AGCTCGCG, 0.0671.
For ACGCGTGC the value was 0.13.
Turning to CCAGTACC, the binding signal (normalized occupancy) was 0.0725.
For CTTCCTCC, the binding signal (normalized occupancy) amounted to 0.0697.
For AGTGTTCG the value was 0.0757; for TTAGGGAA, 0.0754.
For ACGTGAGG, the binding signal (normalized occupancy) turned out to be 0.0969.
For AGTACAAC the value was 0.0757; for CAGGCGGG, 0.0747.
With GAATCTCC, the binding signal (normalized occupancy) turned out to be 0.0703.
For GAACAGCA the value was 0.0796.
For CGTACTAC the value was 0.0793; for GAGTCCGA, 0.072.
For CTGCCCAC the value was 0.0872.
As to GATTTTGC, the binding signal (normalized occupancy) is 0.0747.
Turning to GGCTGCGA, the binding signal (normalized occupancy) stood at 0.0661.
Take AGGTACTG: the binding signal (normalized occupancy) worked out at 0.0722.
For TACTATGA the value was 0.0744; for CGGCGACC, 0.0677.
For CTGACTGA the value was 0.0702; for AAGATGGG, 0.0764.
For the sequence ACCTTGTA, the binding signal (normalized occupancy) stood at 0.0732.
For CCGTACGA the value was 0.0732; for GTACAAAA, 0.0757; for CACGGTCA, 0.083.
For ATTTGAAC the value was 0.0735.
For ACTCTGAG the value was 0.0705; for TGGGCCCA, 0.0716.
AAGAATAC: the binding signal (normalized occupancy) amounted to 0.0745.
For CGCCCACG the value was 0.0896; for AGCACATG, 0.187.
In the case of AGTGTCCA, the binding signal (normalized occupancy) turned out to be 0.0709.
For CTAGAATC the value was 0.0714; for CACCAGGG, 0.0776.

(Values after PMC4242493.)
